The other results are listed elsewhere or left out. At the low end of the ranking the order means little. Measured with an extract: partners may take part in the binding.
biological target: T1, HNF4alpha8 (COS-7 nuclear extract) (UniProt P41235-5); assay: protein-binding microarray; settings: COS-7 nuclear extract on double-stranded Agilent 4x180k PBM; binding buffer, salt, pH and temperature not given; high values mean tight binding; double strand, one strand shown; sequences stand for … in …GCCTAGGGAGATTAGAGTATCGGTCGA
T1 sequence: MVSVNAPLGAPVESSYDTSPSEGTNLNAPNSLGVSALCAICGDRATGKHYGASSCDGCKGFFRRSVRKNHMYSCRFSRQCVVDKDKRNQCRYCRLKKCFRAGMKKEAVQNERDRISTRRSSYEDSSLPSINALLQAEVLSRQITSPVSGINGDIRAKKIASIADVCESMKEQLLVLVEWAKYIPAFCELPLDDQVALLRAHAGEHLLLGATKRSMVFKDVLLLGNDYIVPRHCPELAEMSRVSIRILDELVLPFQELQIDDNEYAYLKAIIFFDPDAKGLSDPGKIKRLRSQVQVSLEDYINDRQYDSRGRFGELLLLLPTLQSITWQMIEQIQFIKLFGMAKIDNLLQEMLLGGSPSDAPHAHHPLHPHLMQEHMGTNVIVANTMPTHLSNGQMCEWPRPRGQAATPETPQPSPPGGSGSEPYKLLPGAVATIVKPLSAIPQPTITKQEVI

Sequence	binding signal (log2 normalized intensity)
TAGTATCCCTGAGTCATTTTTAGAAGCTCT	-1.26
TTTCTCCATACCTCTTGCGTGTTATCTATG	1.5
GCCACCCATCAGTGGACTTTGACCTTGTTT	10.8
GGGAGGGGTGGACTTTGGCTTTTCCAAAGG	5.04
ATGGTGACCATGTGATGTGAAGAGTGTGGA	1.31
GTCACCACCTTTTTTGGCCTTTACCCCTTG	5.31
AACTGATATGGCTCTGTTTTACAAACACAA	-1.23
GACACTTCCAGCCAAACCAGGTCATGCATT	0.387
TCTACTGCTCTATTTAGACTCAGCATGTCT	0.275
CTGGGAATGACATTTTGGACTACTTCATGT	1.63
AGCTAATCTAGAGACACTATGTGCATTCCA	-1.28
TTCCCAGCTAAATAAATAACTCTAAGAAAT	-1.3
CTCACGGTAACAGCCGGAGAGGCAAGTATG	-1.18
ACTCAAAGGTCAAATGACAGAAGCAGGACT	2.24
GACATGAAGGACATAAATGTGCCCAGATAA	-0.092
AGAGTCTGACAGAACTAAGCTGTTGCGTAA	-1.3
GCTCTCCCATAAGAATCCTTTTCATTCTTT	-0.00663
TGTTTATCCTTCAACAATTCTATGAGTAGG	0.484
GGGGCTGGCATGTCTCTGGTCAGGGAGGGC	0.5
TTGGGTGACTTTCTTCCTATGGGATCAAAG	1.1
AGCTCTTGCTGGTCAAGCTAAGCACAACTG	-1.3
ACTTGCCCTCAGTAAAGGACAAAGTCAACG	2.02
GGAGGGGAAGAAAGGAATGTGCCTGCAAGT	-1.33
ACTCTGGGAGCCCTGGGGTAATAAATAAAG	-0.97

Sequence	binding signal (log2 normalized intensity)
TTTCCAAAGAGCAGCTAGCTCCAGTTGGTT	-1.24
AGTGGGTCTAGGTTCTGGGGTGATTACCCT	1.92
TGACCTGGTACTATGACCTTTCACCTTTTA	7.78
GGGGTGGGGAGGATAGCAGCCCAGCAAAGA	-1.26
ACATCAGAAGTTGGACTTTGTACATTCCAA	8.13
TCAGGCCCAGAAACACTGAACCTTGTCCCA	4.01
TCCGAGCCATTTTGGAGCCGGTGTCAGTTT	1.18
TGCCTGCAGGAGAGAGCAAAGTCCACGCAT	6.82
CCTGAAAGGTAGGCAGAGAGGCTGCTCAGT	-1.18
CCTTTGGACTGTGACCCCACCTCTCAGACA	5.4
ACCCTTCCCTAAGATTTATCCCAAATGTTT	1.14
ATGTGCCTGATGGGATGAGAGAGCCCCTGT	1.67
CTGGCAGGGAGGAGGGATCAAGCAGGTGAC	-0.994
AACAGCGAACATGAGGAATAAACTTCTGTC	-1.2
AGAATTGAAGAGAGTTAGGGCCTTGCTATG	-1.01
ACAGCTCTTGTGCTCTGGACATACCTCTAA	-1.06
CAAAGGACCAAAAGATATTTGCTGCTGACA	-1.2
ACTACTAACCGAAAGTCTGACCCTTGACCA	7.2
GGAATGTGGATGCTGGAATGAGGGAGGCAG	-1.11
ACCTGGGCAACAGGGAGCCCTTATATCCAC	-1.42
CCTTCTTGGCAAGTTAATGTGGCCTAATGT	1.85
CCAATGTTTACCAGCTCTGTTGCTTATCTT	0.114
CTGAACTTTAGCTCACTGTTGAACATTAAC	1.54
TGAAATTTGTATCTTGGGTTAGGCCTTTAG	0.771

Sequence	binding signal (log2 normalized intensity)
ACAGCCTCTAAGCACGGCCAGGATTAACCA	-1.24
AGGACATAGTCCTCTGCATATTTCTGCTAC	-1.34
CCTTTTATTTTCTTATCTGCCTAGGCATTT	1.58
CACGGTGGACATTGTCCAAGGGCTGTAGCA	0.859
GGGTTCAGATGAAAGGCGGCAACTTCTTCA	-1.26
TTCTTTTATCACTTTGTAATGTCCCTCTTT	2.06
ACCCATGTTTGCCCTTGATAAGAGCTGCTC	0.685
TCACGGCAGCTTGTACCCTTCTTTCCACCC	1.7
TCTCTGCTGGGCAGAGGGACAACTGAGTTA	0.311
AAGCAATAGGGTTCGGTGCAATAACACCTA	-1.2
AGGTGGTTCACAAATAGCAGAAAATCCAGG	-0.907
AAGGCTTTGAAGTCTGGTGGCAAGTACCCT	-0.423
CCTCTGGCCACCAGTTATTCATGTCCCTAC	-0.0166
AGCCTGTGTGCTGAGAGTTGGAAAATGTCG	0.798
TTGAGCTGCATATTTGAGTAGGATTTTGCT	-1.23
GGCCAGGTGGGCTGCTCCCAGTGCCCTTTG	4.47
TGATATTGGGTGAGTGTTAGAGCACCCTCT	0.926
CCAAATGACGCTTTAAGTAGGCACTATTAT	-1.18
AGGTTAAGACTTTGAATCAGTAAATATTTG	1.2
ATGTTCAGGATTACTATAGGTTCTACTCTC	-1.19
CAAAACTTCACCTCCCCTAGACTTACTATT	1.73
CCATGCTCTTTGGCCTGGCATTTGAGACTA	0.329
GCGCGGACATAAAATTAAAGCGGACGGGCT	-1.34
ACCTACGGGTCAAGGGTTCAGGGCTCAGTT	2.57

Sequence	binding signal (log2 normalized intensity)
AGGGGCTATTTCTGACCTTTGCACCAGAGA	7.69
AGATTGCATCTGTTTTTATTTCCCCTTTCT	1.87
TTTGTGAGAGGTCAATGTCCAGTTCCGCTG	5.02
ATGATTGCTCTCTACTTGGTGGGAGGAGGG	-1.29
AGGGCACTGGGGATAGAATCAAAGGTCAGG	4.67
ATGTCATTTAAGACGAGTGGTTTGAGGTCA	3.2
CACAAATCTCCACAAACATACAACCATCAA	-0.987
AGATAATGGATTGGGGGCCATGTCTCAGCC	-0.922
GCAAAGACTCAAATCCAAGCTGGCTGGCTT	-1.35
AGGCCAGGGGCACTCTCTGTTATCAGACAC	-1.12
CAGCTGGAAGGTATTGTCATTATTCCAGCT	-1.43
AACCCCTATGTTTAATGTATAAACCCTGAG	1.17
ACATCCCACTCAAAGGTCAGGGCTAGGCTG	0.754
GAAGAGATCAAAGTTCTGTTTGTATAACCC	2.92
CAGTTGGCCACCTTTGGCCGAAACTCAGTG	1.78
GACCAGGTTGTGAGGGAGGGCACAGGCAAC	-0.883
ATAGCCACCAGGGCCTCTGAGATAAGGGTT	-1.31
GAGGGGGCGGGGAGAGGGAAGAGTCTTCTC	-1.37
CGTGAGTATTTTTTCAACATATACTTTGAA	1.55
AATTGAACTGAAATATGAACTGCTGCCTAC	-1.25
TAAATCTCTAGTCCCAGCCTAGGCCTTTGT	0.204
